# The inconclusive results got no clear call from the source; some entries with a clear call stand among them for comparison. For some of these results: Potencies beside an inconclusive call are fits to weak or partial responses and may not hold up. Calls of active or inactive are those of the source. Unless noted, calls come from the whole dose curve; as a rule, active = well fitted curve in the direction sought with a large enough effect in the repeat runs; inconclusive = weak or mixed curves; inactive = no such curve, though single readings can be large; an effect the other way counts as inactive or inconclusive.
# How the values were obtained:
# [1] = target: Estrogen receptor beta (Homo sapiens) (UniProt Q92731); assay: qHTS assay to identify small molecule agonists of the estrogen receptor beta (ER-beta) signaling pathway (AID 1259377; active = well fitted activation curve with a large enough effect in the signal ratio in the repeat runs, not every such curve was filed as active; inconclusive = weak or mixed curves, or effect the other way; the % refers to the signal ratio; note: potency is the fitted concentration of half-maximal effect; for activation: % is set by controls: 0 for no effect and ±100 for the full control effect); conditions: ER-beta-UAS-bla HEK293T, beta-lactamase FRET ratio, 16 h; activation: at 92.4 µM (top of the series) unless noted
# In short: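 HEK293T ER-beta-UAS-bla; 2% charcoal-stripped FBS; cells pre-incubated 6 hr, compound 16 hr, 37C/5% CO2; LiveBLAzer B/G FRET substrate 2 h RT; fluorescence intensity read.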
# [2] = target: Estrogen receptor beta (Homo sapiens) (UniProt Q92731); assay: qHTS assay to identify small molecule antagonists of the estrogen receptor beta (ER-beta) signaling pathway (AID 1259378; active = well fitted inhibition curve with a large enough effect in the signal ratio in the repeat runs, not every such curve was filed as active; inconclusive = weak or mixed curves, or effect the other way; inactive = no such curve, though single readings can be large or run the other way; the % refers to the signal ratio; note: potency is the fitted concentration of half-maximal effect; for activity, negative = inhibition: % is set by controls: 0 for no effect and ±100 for the full control effect); conditions: ER-beta-UAS-bla HEK293T, beta-lactamase FRET ratio, 16 h; activity, negative = inhibition: at 92.4 µM (top of the series) unless noted
# In short: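 ER-beta-UAS-bla HEK293T (GripTite) cells in 2% charcoal-stripped FBS medium were preincubated 6 hr at 37C, dosed with compound, then stimulated with 1 nM E2 (final) for 16 hr; beta-lactamase reporter read by B/G FRET fluorescence after 2 hr substrate loading.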
# [3] = qHTS assay to identify small molecule agonists of the estrogen receptor beta (ER-beta) signaling pathway - cell viability counter screen (AID 1259380); note: nearly all actives have a fitted effect of over 30% in size; note: potency is the fitted concentration of half-maximal effect
# In short: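 Measured: luminescence from CellTiter-Glo after 30 min at room temperature, added to wells already read for the LiveBLAzer FRET reporter (2 hr substrate); ER-beta-UAS-bla HEK293T cells had 16 hr compound treatment at 37C, 5% CO2.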
# [4] = target: Progesterone receptor (Homo sapiens) (UniProt P06401); assay: qHTS assay to identify small molecule antagonists of the progesterone receptor (PR) signaling pathway (AID 1346795; active = well fitted inhibition curve with a large enough effect in the signal ratio in the repeat runs, not every such curve was filed as active; inconclusive = weak or mixed curves; the % refers to the signal ratio; note: potency is the fitted concentration of half-maximal effect; for activity change, negative = inhibition: % is set by controls: 0 for no effect and ±100 for the full control effect); conditions: PR-UAS-bla HEK293T, beta-lactamase FRET ratio, 16 h; activity change, negative = inhibition: at 92.4 µM (top of the series) unless noted
# In short: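 Read-out is fluorescence from the LiveBLAzer B/G FRET substrate, cleaved by a UAS-controlled beta-lactamase in PR-UAS-bla HEK293T cells after 16 hr exposure to compound plus 1 nM promegestone (final), followed by 2 hr at room temperature.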
# [5] = qHTS assay to identify small molecule antagonists of the progesterone receptor (PR) signaling pathway - cell viability counter screen (AID 1346798); note: nearly all actives have a fitted effect of over 50% in size; note: potency is the fitted concentration of half-maximal effect
# In short: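 HEK293T PR-UAS-bla, 2% charcoal-stripped FBS; 4 hr pre-plate; cpd + R5020, 16 h 37C; LiveBLAzer read first; then CellTiter-Glo 30 min RT, luminescence.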
# [6] = qHTS assay to identify small molecule agonists of the progesterone receptor (PR) signaling pathway - cell viability counter screen (AID 1346799; calls by dose curve; note: nearly all actives have a fitted effect of over 45% in size; note: potency is the fitted concentration of half-maximal effect)
# In short: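 Luminescence from CellTiter-Glo, added after the beta-lactamase FRET read in the same wells, gave cytotoxicity in PR-UAS-bla HEK293T cells treated with compounds for 16 hr at 37C.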
# [7] = qHTS assay to identify small molecule antagonists of the sonic hedgehog signaling (Shh) pathway (AID 1259369; calls by dose curve; note: potency is the fitted concentration of half-maximal effect; nearly all actives have a fitted effect of over 45% in size)
# In short: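 NIH/3T3 stable Gli1-Luc clone, 2,000 cells/well, 4hr settle; cpd + conditioned medium 24hr; Luc reagent 30min RT; luminescence.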
# [8] = qHTS assay to identify small molecule antagonists of the TGF-beta/Smad signaling pathway - cell viability counter screen (AID 1346824); note: nearly all actives have a fitted effect of over 50% in size; note: potency is the fitted concentration of half-maximal effect
# In short: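 SBE-bla HEK 293T cells were plated overnight at 37 C, then given compounds in DMSO plus TGF-beta1 (added as 0.25 ng/mL solution) for 5 hr. After the bla read, CellTiter-Glo was added to the same wells and luminescence read after 30 min at room temperature.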
# [9] = qHTS assay to identify small molecule agonists of the estrogen receptor alpha (ER-alpha) signaling pathway in the presence of an antagonist - cell viability counter screen (AID 1259386);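 note: cells exposed to compounds for 22 h at 37 °C before the viability read; nearly all actives have a fitted effect of over 30% in size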; note: potency is the fitted concentration of half-maximal effect
# In short: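 The test measures whether compounds kill ER-alpha reporter cells (VM7Luc4E2) under antagonist co-treatment (ICI-182,780, 10.0nM). Fluorescence from CellTiter-Fluor is read after a 22hr exposure.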
# [10] = qHTS assay to identify small molecule antagonists of the estrogen receptor beta (ER-beta) signaling pathway - cell viability counter screen (AID 1259382); note: % is set by controls: 0 for no effect and ±100 for the full control effect; nearly all actives have a fitted effect of over 55% in size
# In short: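 Readout: luminescence, CellTiter-Glo, same wells as bla assay. System: ER-beta-UAS-bla GripTite HEK293T, 2% charcoal-stripped FBS. Exposure: compounds plus 1nM 17-beta-estradiol, 16 hr, 37C.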
# Tags give direction and shape of the fitted curve or compound fluorescence and quenching.
# UniProt Q92731, sequence (Q92731 whole entry, looked up): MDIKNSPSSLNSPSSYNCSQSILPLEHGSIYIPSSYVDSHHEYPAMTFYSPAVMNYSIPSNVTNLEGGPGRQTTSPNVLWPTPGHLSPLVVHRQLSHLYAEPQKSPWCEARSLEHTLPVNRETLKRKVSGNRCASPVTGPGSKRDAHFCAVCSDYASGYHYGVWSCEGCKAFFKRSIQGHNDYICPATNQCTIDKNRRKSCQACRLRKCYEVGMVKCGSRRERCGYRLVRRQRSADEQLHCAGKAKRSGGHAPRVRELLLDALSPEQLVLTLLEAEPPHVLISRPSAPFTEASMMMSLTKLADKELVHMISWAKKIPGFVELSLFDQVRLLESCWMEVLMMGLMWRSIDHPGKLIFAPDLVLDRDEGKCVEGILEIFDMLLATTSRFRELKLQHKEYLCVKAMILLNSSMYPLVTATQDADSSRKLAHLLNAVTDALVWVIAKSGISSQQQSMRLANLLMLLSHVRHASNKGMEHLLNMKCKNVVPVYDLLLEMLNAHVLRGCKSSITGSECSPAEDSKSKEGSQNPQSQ
# UniProt P06401, sequence (P06401 whole entry, looked up): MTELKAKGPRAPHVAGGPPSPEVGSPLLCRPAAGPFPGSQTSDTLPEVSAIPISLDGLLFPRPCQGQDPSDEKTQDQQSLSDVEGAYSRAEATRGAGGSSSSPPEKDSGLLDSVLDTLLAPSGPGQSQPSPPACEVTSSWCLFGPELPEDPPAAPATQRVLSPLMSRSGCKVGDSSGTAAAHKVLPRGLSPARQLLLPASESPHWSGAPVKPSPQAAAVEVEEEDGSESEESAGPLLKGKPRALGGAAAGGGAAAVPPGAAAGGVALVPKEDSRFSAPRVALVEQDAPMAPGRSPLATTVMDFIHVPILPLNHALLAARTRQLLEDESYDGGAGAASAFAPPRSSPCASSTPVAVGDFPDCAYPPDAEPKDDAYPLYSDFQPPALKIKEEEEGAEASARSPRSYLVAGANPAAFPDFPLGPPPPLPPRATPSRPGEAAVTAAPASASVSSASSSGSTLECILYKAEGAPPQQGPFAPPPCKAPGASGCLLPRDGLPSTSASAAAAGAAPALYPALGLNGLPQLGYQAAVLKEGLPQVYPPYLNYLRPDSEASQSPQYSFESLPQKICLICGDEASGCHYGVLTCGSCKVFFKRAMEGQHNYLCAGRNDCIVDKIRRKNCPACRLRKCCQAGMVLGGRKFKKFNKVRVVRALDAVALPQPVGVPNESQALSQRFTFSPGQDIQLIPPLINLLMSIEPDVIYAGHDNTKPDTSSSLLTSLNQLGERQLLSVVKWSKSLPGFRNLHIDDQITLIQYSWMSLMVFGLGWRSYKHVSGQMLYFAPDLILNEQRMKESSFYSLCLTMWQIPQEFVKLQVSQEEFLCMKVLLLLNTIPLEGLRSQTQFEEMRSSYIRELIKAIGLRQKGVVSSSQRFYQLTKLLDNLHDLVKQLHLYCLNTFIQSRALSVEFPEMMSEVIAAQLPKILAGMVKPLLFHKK
compound,measurement,setting,value
O=c1oc2ccccc2c(O)c1Cc1c(O)c2ccccc2oc1=O,Potency,[1],"inconclusive: 11.9 µM [rising, single point]"
same,"activity, negative = inhibition",[2],inconclusive: -38.6% [at 42.5 µM]
same,Potency,[3],active: 5.31 µM
same,"activity change, negative = inhibition",[4],inconclusive: -27.5% [at 42.5 µM]
same,Potency,[5],inconclusive: 6.68 µM [cytotoxic]
same,Potency,[6],"inconclusive: 13.3 µM [cytotoxic, full curve, poor fit]"
CCC(Cl)CCl (stereo unspecified),Potency,[1],inactive
CC(C)(C)c1ccccc1O,activation,[1],inconclusive: 8.35%
C1CCC(NC2CCCCC2)CC1,Potency,[7],"inconclusive: 13.3 µM [inhibitor, single point]"
same,Potency,[6],inactive
CN(C)C1CSSSC1,Potency,[7],"inconclusive: 61.1 µM [inhibitor, partial curve, poor fit]"
same,Potency,[8],"inconclusive: 54.9 µM [cytotoxic, single point]"
BrCC(Br)c1ccccc1 (stereo unspecified),activation,[1],inconclusive: 12.2%
CN(C)CCc1c[nH]c2cccc(OP(=O)(O)O)c12,Potency,[1],inactive
same,Potency,[9],"inconclusive: 2.68 µM [cytotoxic, single point]"
same,Potency,[6],inactive
Cc1nn(-c2cc(NS(C)(=O)=O)c(Cl)cc2Cl)c(=O)n1C(F)F,Potency,[1],"inconclusive: 43.3 µM [rising, partial curve]"
same,Potency,[2],"inconclusive: 68.6 µM [rising, partial curve, poor fit]"
same,Potency,[8],inactive
CC1(C)Cc2cccc(O)c2O1,Potency,[1],"inconclusive: 63.5 µM [activator, partial curve, poor fit]"
same,Potency,[4],inactive
same,Potency,[5],inactive
FC(F)(F)c1cccc(C2=CCN(CCc3ccc4ccccc4c3)CC2)c1,activation,[1],inconclusive: 9.12% [at 42.5 µM]
same,Potency,[3],"inconclusive: 5.31 µM [cytotoxic, full curve, poor fit]"
same,Potency,[10],inactive
CCOC(=O)Nc1cccc(OC(=O)Nc2ccccc2)c1,activation,[1],inconclusive: 4.21%
same,Potency,[6],"inconclusive: 2.43 µM [rising, single point]"
C#C[C@]1(O)CC[C@H]2[C@@H]3CCC4=CC(=O)CC[C@]4(C)[C@H]3CC[C@@]21C,activation,[1],inconclusive: 5.77% [at 42.5 µM]
same,"activity change, negative = inhibition",[4],inconclusive: 10% [at 42.5 µM]
same,Potency,[5],"inconclusive: 27.3 µM [rising, single point]"
NC(=S)Nc1ccccc1,Potency,[1],"inconclusive: 22 µM [activator, full curve, poor fit]"
same,Potency,[9],inactive
same,"activity change, negative = inhibition",[4],inconclusive: -57.2%
same,Potency,[5],"inconclusive: 44 µM [cytotoxic, partial curve, poor fit]"
C1CCC2CCCCC2C1 (stereo unspecified),activation,[1],inconclusive: 4.07%
same,Potency,[4],inactive
CN(C)C(=O)Nc1ccc(Cl)cc1,Potency,[1],inactive
same,Potency,[4],inactive
CCCCCCCCCCCCCN1CC(C)OC(C)C1 (stereo unspecified),Potency,[1],inactive
same,Potency,[3],"inconclusive: 21.7 µM [cytotoxic, partial curve]"
CCCCCCC#N,Potency,[1],inactive
same,Potency,[5],inactive
COc1c(C(C)(C)C)cc([N+](=O)[O-])c(C)c1[N+](=O)[O-],Potency,[1],"inconclusive: 24.1 µM [activator, partial curve, poor fit]"
same,Potency,[4],inactive
same,Potency,[5],inactive
same,Potency,[6],inactive
COC(=O)N(OC)c1ccccc1COc1ccn(-c2ccc(Cl)cc2)n1,Potency,[1],"inconclusive: 1.37 µM [rising, full curve]"
same,Potency,[2],"inconclusive: 1.09 µM [rising, full curve]"
same,Potency,[9],active: 0.864 µM
same,Potency,[4],active: 4.86 µM
same,Potency,[5],"inconclusive: 68.6 µM [cytotoxic, single point]"
same,Potency,[6],"inconclusive: 0.686 µM [rising, partial curve, poor fit]"
N#C/C(N)=C(/N)C#N,Potency,[1],inactive
same,Potency,[3],inactive
same,Potency,[4],"inconclusive: 26.5 µM [rising, partial curve]"
NCCOS(=O)(=O)O,Potency,[1],inactive
same,Potency,[5],"inconclusive: 0.969 µM [cytotoxic, partial curve, poor fit]"
Cc1ccc(C)c2ccccc12,activation,[1],inconclusive: 9.11%
same,Potency,[2],inactive
same,Potency,[4],inactive
C=CC(=O)OCCN(C)C,Potency,[1],inactive
same,Potency,[4],inactive
same,Potency,[6],inactive
NP(N)(=O)NC(=O)c1ccc(F)cc1,Potency,[1],inactive
same,"activity change, negative = inhibition",[4],inconclusive: 4.99% [at 42.5 µM]
N#CCCC#N,Potency,[1],inactive
same,Potency,[3],inactive
same,Potency,[4],inactive
Cc1ccccc1C(=O)Nc1cccc(OC(C)C)c1,Potency,[1],"inconclusive: 30.6 µM [rising, full curve, poor fit]"
same,Potency,[3],active: 19.3 µM
same,Potency,[4],"inconclusive: 34.4 µM [rising, partial curve]"
same,Potency,[5],"inconclusive: 8.63 µM [cytotoxic, partial curve]"
same,Potency,[6],"inconclusive: 8.63 µM [cytotoxic, partial curve]"
CS(=O)(=O)c1cc(C(F)(F)F)ccc1C(=O)c1cnoc1C1CC1,Potency,[1],inactive
same,Potency,[4],inactive
same,Potency,[5],"inconclusive: 0.243 µM [cytotoxic, single point]"
